Data published in paper PMC4336329 (PLoS ONE, 2015).
Among all 310,000 compounds or so, about 14,000 (4.5%) showed an effect of 50% or more. The effect is printed as a negative number. This is one part of the list.

These compounds were tested against human ether-à-go-go-related gene (hERG) potassium channel (human, UniProt Q12809) (assay: primary screen, population patch clamp on CHO cells stably expressing hERG).
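Further: peak tail current of the secondary pulse compared with the same well before compound.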

human ether-à-go-go-related gene (hERG) potassium channel, sequence (Q12809 whole entry, looked up): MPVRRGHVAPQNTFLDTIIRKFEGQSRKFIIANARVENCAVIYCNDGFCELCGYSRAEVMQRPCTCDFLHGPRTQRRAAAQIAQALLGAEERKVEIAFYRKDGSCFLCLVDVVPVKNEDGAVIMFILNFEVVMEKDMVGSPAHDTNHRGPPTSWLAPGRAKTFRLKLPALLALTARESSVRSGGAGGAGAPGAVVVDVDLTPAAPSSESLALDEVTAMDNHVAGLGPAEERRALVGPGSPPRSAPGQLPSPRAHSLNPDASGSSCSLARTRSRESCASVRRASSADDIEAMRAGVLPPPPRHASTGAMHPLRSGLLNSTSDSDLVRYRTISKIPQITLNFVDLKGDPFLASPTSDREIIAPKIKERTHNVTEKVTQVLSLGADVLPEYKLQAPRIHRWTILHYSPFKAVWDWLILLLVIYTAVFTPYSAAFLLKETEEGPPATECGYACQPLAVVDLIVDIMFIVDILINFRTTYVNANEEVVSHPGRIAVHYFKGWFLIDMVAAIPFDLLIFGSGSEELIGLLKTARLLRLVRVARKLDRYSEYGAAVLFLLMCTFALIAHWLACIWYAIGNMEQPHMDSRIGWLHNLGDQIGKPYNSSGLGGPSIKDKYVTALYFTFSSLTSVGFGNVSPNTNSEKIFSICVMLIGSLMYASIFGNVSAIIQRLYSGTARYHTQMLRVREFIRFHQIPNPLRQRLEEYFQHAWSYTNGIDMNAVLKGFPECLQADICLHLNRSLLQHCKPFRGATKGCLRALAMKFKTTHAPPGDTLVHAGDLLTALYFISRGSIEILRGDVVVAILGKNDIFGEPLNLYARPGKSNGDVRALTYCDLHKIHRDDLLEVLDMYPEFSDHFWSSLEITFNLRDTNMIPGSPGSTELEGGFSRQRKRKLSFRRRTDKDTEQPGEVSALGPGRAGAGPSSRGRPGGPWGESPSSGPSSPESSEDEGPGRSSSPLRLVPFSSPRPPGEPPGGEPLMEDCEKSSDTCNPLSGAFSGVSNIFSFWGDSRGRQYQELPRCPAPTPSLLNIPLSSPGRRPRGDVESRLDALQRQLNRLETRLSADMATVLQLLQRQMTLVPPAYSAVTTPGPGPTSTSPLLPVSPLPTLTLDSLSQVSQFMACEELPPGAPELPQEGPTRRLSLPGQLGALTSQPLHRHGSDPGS

Row | SMILES | hERG current change (%, negative = inhibition) at 10uM [%]
1 | CCCC(C)NC(=O)COC(=O)c1cccc(NS(C)(=O)=O)c1 (stereo not drawn) | -0.372
2 | Nc1nonc1-n1nnc(C(=O)O)c1-c1cccs1 | 14.3
3 | CC1CC(=S)Nc2ccccc2S1 (stereo not drawn) | 11.1
4 | Cn1cc(C(=O)Nc2cccc(F)c2)cn1 | 15.3
5 | COc1cc(C(=S)N2CCOCC2)cc(OC)c1OC(=O)Cc1ccccc1 | 3
6 | Cc1ccc(-c2cc(N)n(Cc3ccc(Cl)cc3)n2)cc1 | -13.6
7 | Cc1cc(C)nc(N/N=C/c2ccccc2OCc2cccc(Br)c2)n1 | -6.27
8 | CN(C(=O)c1cc(S(=O)(=O)N2CCc3ccccc32)cn1C)C1CCCCC1 | -26.3
9 | CC(C)NC(=O)c1cc(-c2ccco2)on1 | 2.16
10 | Cc1ccc(-c2cc(C(=O)NCCCn3ccnc3)no2)cc1 | -42.9
11 | CC(NC(=O)CCc1nnc(CCCc2ccccc2)o1)c1ccccc1 (stereo not drawn) | -0.0441
12 | O=C(CSc1nnc(-c2cccs2)n1CC1CCCO1)N1CCCC1 (stereo not drawn) | -14.4
13 | Cc1sc2ncnc(SCC(=O)c3cccs3)c2c1C | -11.8
14 | CN1C(=O)Cc2cc(S(=O)(=O)Nc3ccc(N4CCOCC4)cc3)ccc21 | 5.48
15 | O=C(COC(=O)CCc1ccccc1)NC(c1ccccc1)c1ccccc1 | 3.65
16 | Cc1cc(C)c(NC(=O)C2CCC(=O)N2)c(C)c1 (stereo not drawn) | 16.2
17 | Cc1noc(C)c1CSc1ccccc1C(=O)Nc1nccs1 | 1.74
18 | CCCCCn1c(=O)c(C(=O)NCc2ccccc2Cl)c(O)c2ccccc21 | 18.9
19 | COCCOC(=O)c1c(N)n(CCCN2CCOCC2)c2nc3ccccc3nc12 | -53.3
20 | CCCN1CCc2c(sc(NC(=O)CCS(=O)(=O)c3ccccc3)c2C(N)=O)C1.Cl | -27.3
21 | Cc1ccc2c(c1)C(c1ccc(N3CCOCC3)cc1)=NNC(c1cccs1)=N2 | 1.66
22 | Cc1ccc(NC(=O)CC2S/C(=N/c3nccs3)N(C)C2=O)cc1C (stereo not drawn) | -0.441
23 | CCCc1ccc(-c2c(C)sc(N)c2C#N)cc1 | 16.3

Row | SMILES | hERG current change (%, negative = inhibition) at 10uM [%]
24 | CC(C)C(=O)NC(Nc1ccccc1F)C(Cl)(Cl)Cl (stereo not drawn) | 3.48
25 | Cc1ccc(NC(=S)NCc2ccc(S(N)(=O)=O)cc2)c(C)c1 | 8.36
26 | CN(C)CC/C=C1\c2ccccc2Sc2cc(F)c(Cl)cc21.Cl | 7.2
27 | CCc1nnc(NC(=O)CSc2ccc(Cl)cc2)s1 | -3.04
28 | COc1ccc(-c2noc(-c3ccc(Br)o3)n2)cc1OC | 2.67
29 | Cc1ccc(S(=O)(=O)Nc2ccc(C(=O)N3CCCC3)cc2)c(C)c1NS(C)(=O)=O | 14.5
30 | COCCCNC(=O)CN(c1ccc(F)cc1)S(=O)(=O)c1ccc2c(c1)OCCO2 | -15
31 | COc1cccc(-n2c(C)nc3c(cnn3-c3ccc(C)cc3)c2=O)c1 | 2.38
32 | CCC1Cc2c(nc(N)c3c(N)nc(N4CCOCC4)c(C#N)c23)O1 (stereo not drawn) | 18
33 | Cc1cc(OCC(=O)NCc2cccnc2)c2c(C)c(C)c(=O)oc2c1 | -19.4
34 | Cc1ccc(CC2C(=O)N(c3nc(C)cc(C)n3)C(=O)C2C)cc1 (stereo not drawn) | 2.42
35 | CCOC(=O)c1ccc(Cl)c(NC(=O)c2cccnc2)c1 | -2.41
36 | Nc1c(C(=O)NCc2ccc(Cl)cc2)sc2nc3c(c(C(F)(F)F)c12)CCC3 | -15.7
37 | CC(Sc1nc(N2CCOCC2)nc(N2CCOCC2)n1)C(=O)Nc1ccccc1 (stereo not drawn) | 14.3
38 | COc1ccc(CCNC(C)C(=O)Nc2ccc(S(N)(=O)=O)cc2)cc1 (stereo not drawn) | -9.23
39 | CCOC(=O)c1c(/N=C/c2ccc(O)cc2O)sc2c1CCC2 | 15.7
40 | O=C(COC(=O)c1cccc2c1C(=O)c1ccccc1C2=O)NC1CCCCC1 | -39.2
41 | Cc1ccc(NC(=O)CSc2nnc(-c3ccco3)n2N)cc1F | 12.4
42 | Clc1ccc(-c2nnnn2-c2ccc(Cl)c(Cl)c2)cc1Cl | 5.62
43 | COc1cccc(NC(=O)CN(C)C(=O)c2ccc(-c3ccccc3Cl)o2)c1 | -30.2
44 | O=C(CN1C(=O)S/C(=C\c2ccc(Cl)cc2)C1=O)NCCCn1ccnc1 | -68.2
45 | Cc1ccsc1/C=C(\C#N)C(=O)Nc1c(C)n(C)n(-c2ccccc2)c1=O | -11.1
46 | CCCCn1c(=N)n(CC(O)COc2ccc(C)cc2)c2ccccc21.Cl (stereo not drawn) | -81.8

Row | SMILES | hERG current change (%, negative = inhibition) at 10uM [%]
47 | COCCCN1C(=O)C(=O)/C(=C(/O)c2ccc(S(=O)(=O)N3CCOCC3)cc2)C1c1ccc(C(C)C)cc1 (stereo not drawn) | -0.0518
48 | CC(C)(C)NC(=O)CN(Cc1ccccc1)S(=O)(=O)c1ccccc1 | -9.12
49 | O=C(CSc1nnc(COc2cccc3cccnc23)o1)N1CCCC1 | 3.55
50 | CCn1ccc(C(=O)NC2CCCC2)n1 | 8.02
51 | O=C(O)CC(CC(=O)Nc1ccc(-n2ccc(C(F)(F)F)n2)cc1)c1ccccc1 (stereo not drawn) | 6.08
52 | O=C(O)c1cc(-c2ccc(Cl)cc2)n(-c2ccccc2)n1 | 30.3
53 | CCCCNC(=O)COC(=O)CCC(=O)c1cccs1 | 12.8
54 | O=C(NCCC(c1ccccc1)c1ccccc1)c1cnc2sccn2c1=O | 11.9
55 | O=C(O)c1ccc2cc(-c3ccccc3)[nH]c2c1 | -30.8
56 | CCOC(=O)c1nn(-c2ccccc2)c(=O)cc1OCC(=O)Nc1cc(C)ccc1C | -4.22
57 | CC1(C)CC(=O)C(C2(O)C(=O)NC(=O)NC2=O)=C(O)C1 | -11.4
58 | O=C(CC1CCCC1)Nc1ccc(Br)cc1 | -4.39
59 | CCN(CC)C(=O)C(=O)c1cccn1-c1cccc(Cl)c1C#N | 2.32
60 | CN(CC(=O)Nc1ccccc1C(F)(F)F)C(=O)c1cc2c(s1)CCCCC2 | -29.2
61 | O=C(NC1CCCC1)c1cc2ccccc2o1 | -0.288
62 | COc1ccc(Cl)cc1NC(=O)CN(C)C(C)C(=O)NC(=O)NC1CCCCC1 (stereo not drawn) | -2.98
63 | O=C(CSc1ccc(F)cc1)NC1CCCCC1 | 15.9
64 | Cc1nc(NC(=O)CN2CCN(c3ccccc3F)CC2)sc1C(=O)N(C)C | 16.3
65 | O=C1C=C(NCCc2ccccc2)C2(CCCCC2)O1 | 21.4
66 | c1ccc(CCN2CN=C(Nc3nc4ccccc4s3)NC2)cc1 | -1.49
67 | CCOC(=O)C(C)N1C(=O)S/C(=C/c2cc(C)n(-c3ccncc3)c2C)C1=O (stereo not drawn) | -18.3
68 | CCOc1ccc(-n2nc3ccc(NC(=O)CC)cc3n2)cc1 | 10.2
69 | Cc1ccc(C)c(N(CC(=O)NC2CCCC2)C(=O)c2oc(C(C)(C)C)cc2C)c1 | -6.15

Row | SMILES | hERG current change (%, negative = inhibition) at 10uM [%]
70 | Cc1cnn(-c2cc(N/N=C/c3cccc(F)c3)ncn2)c1 | 8.61
71 | CSCC(=O)N1CCCC(C(=O)c2cc(F)ccc2F)C1 (stereo not drawn) | -1.1
72 | COc1cc(C(=O)Nc2ccc(C(=O)NCC3CCCO3)cc2)cc(OC)c1OC (stereo not drawn) | 19.5
73 | O=C(O)C1CCCN(S(=O)(=O)c2ccc(Br)s2)C1 (stereo not drawn) | -0.142
74 | O=C(NC1CC1)C1CCN(C2CCN(C(=O)Cc3ccc(F)cc3)CC2)CC1 | -2.99
75 | Cc1ccccc1/C=N/n1c(C2CCCCC2)n[nH]c1=S | 19.6
76 | O=C(O)C(Cc1ccccc1)NS(=O)(=O)c1ccc2c(c1)OCCO2 (stereo not drawn) | 8.3
77 | CCN1C(=O)[C@@H]2[C@@H](c3ccc(-c4cccc(Cl)c4)c(OC)c3)N3CCCC[C@@]3(C(=O)OC)[C@@H]2C1=O.O=C(O)C(F)(F)F | 14.7
78 | Oc1ccccc1C1=Nc2ccccc2N=C(c2ccco2)C1 | -12.7
79 | COC(=O)CN1C(=O)C2(OCCCO2)c2cc(Br)ccc21 | 9.66
80 | CC(=O)NC(=O)COC(=O)c1ccc2ncsc2c1 | 18.5
81 | CC(C)CN(Cc1cc2ccccc2[nH]c1=O)C(=O)c1cccnc1 | -1.54
82 | COc1ccc(CCNC(=O)CN2CCCc3ccccc32)cc1OC | 2.6
83 | COP(=O)(C#Cc1ccccc1)C(O)c1ccc(Br)cc1 (stereo not drawn) | 3.77
84 | COc1cc(C(=O)OC(C)C(=O)N2CCc3ccccc3C2)ccc1OCC(=O)N1CCOCC1 (stereo not drawn) | -10.1
85 | CCC(=O)Nc1nc(C)c(Oc2ccccc2)c(=O)[nH]1 | -2.65
86 | CCN=c1sc(C(=O)Nc2ccccc2)c(C)n1CC | -17.4
87 | Cc1onc(-c2ccccc2Cl)c1C(=O)NC(=S)NCCc1ccccc1 | 1.29
88 | O=C(CSC1=NS(=O)(=O)c2ccccc2N1)c1ccccc1 | -8.85
89 | Nc1nc(Nc2ccccc2Br)nc(C(F)(F)F)n1 | 10.9
90 | CCO[C@H]1OC(C(=O)N2CCN(Cc3ccc4c(c3)OCO4)CC2)=C[C@@H](c2cn(C(C)=O)c3ccccc23)[C@@H]1CCCO | -44.8
